Assay results as given in the supplement of paper PMC8728848.
The list shows a part of the results.

Assays:
Experiment in all cases: glycan array binding signal (z-score within array); higher = stronger binding
Details in all cases: glycan notation: IUPAC condensed, linker removed; mutation: D325A
[1] = molecular target: Neu5Ac(a2-3)Gal6S(b1-4)[Fuc(a1-3)]GlcNAc
Method in brief: (§1)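 The Consortium for Functional Glycomics database supplied 3228 glycan arrays, of which those lacking an available protein sequence were dropped. The binding signal, a within-array Z-score, was averaged across arrays of the same protein sequence and across linkers. Negative scores can be read as non-binding.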

Neu5Ac(a2-3)GalNAc = molecular target: Neu5Ac(a2-3)GalNAc
Method in brief: as §1

[2] = molecular target: Neu5Ac(a2-3)GalNAc(b1-4)GlcNAc
Method in brief: as §1

[3] = molecular target: Neu5Ac(a2-3)[GalNAc(b1-4)]Gal(b1-4)Glc
Method in brief: as §1

[4] = molecular target: Neu5Ac(a2-3)[GalNAc(b1-4)]Gal(b1-4)GlcNAc
Method in brief: as §1

[5] = molecular target: Neu5Ac(a2-3)[Neu5Ac(a2-6)]GalNAc
Method in brief: as §1

Neu5Ac(a2-6)Gal = molecular target: Neu5Ac(a2-6)Gal
Method in brief: as §1

Neu5Ac(a2-6)Gal(b1-4)Glc = molecular target: Neu5Ac(a2-6)Gal(b1-4)Glc
Method in brief: as §1

[6] = molecular target: Neu5Ac(a2-6)Gal(b1-4)GlcNAc
Method in brief: as §1

[7] = molecular target: Neu5Ac(a2-6)Gal(b1-4)GlcNAc(b1-2)Man(a1-3)[Gal(b1-4)GlcNAc(b1-2)Man(a1-6)]Man(b1-4)GlcNAc(b1-4)GlcNAc
Method in brief: as §1

[8] = molecular target: Neu5Ac(a2-6)Gal(b1-4)GlcNAc(b1-2)Man(a1-3)[GlcNAc(b1-2)Man(a1-6)]Man(b1-4)GlcNAc(b1-4)GlcNAc
Method in brief: as §1

[9] = molecular target: Neu5Ac(a2-6)Gal(b1-4)GlcNAc(b1-2)Man(a1-3)[GlcNAc(b1-2)Man(b1-4)GlcNAc(b1-2)Man(a1-6)]Man(b1-4)GlcNAc(b1-4)GlcNAc
Method in brief: as §1

[10] = molecular target: Neu5Ac(a2-6)Gal(b1-4)GlcNAc(b1-2)Man(a1-3)[Neu5Ac(a2-6)Gal(b1-4)GlcNAc(b1-2)Man(a1-6)]Man(b1-4)GlcNAc(b1-4)GlcNAc
Method in brief: as §1

[11] = molecular target: Neu5Ac(a2-6)Gal(b1-4)GlcNAc(b1-2)Man(a1-6)[Gal(b1-4)GlcNAc(b1-2)Man(a1-3)]Man(b1-4)GlcNAc(b1-4)GlcNAc
Method in brief: as §1

[12] = molecular target: Neu5Ac(a2-6)Gal(b1-4)GlcNAc(b1-2)Man(a1-6)[GlcNAc(b1-2)Man(a1-3)]Man(b1-4)GlcNAc(b1-4)GlcNAc
Method in brief: as §1

[13] = molecular target: Neu5Ac(a2-6)Gal(b1-4)GlcNAc(b1-3)Gal(b1-4)GlcNAc
Method in brief: as §1

[14] = molecular target: Neu5Ac(a2-6)Gal(b1-4)GlcNAc(b1-3)Gal(b1-4)[Fuc(a1-3)]GlcNAc(b1-3)Gal(b1-4)[Fuc(a1-3)]GlcNAc
Method in brief: as §1

[15] = molecular target: Neu5Ac(a2-6)Gal(b1-4)GlcNAc6S
Method in brief: as §1

Neu5Ac(a2-6)GalNAc = molecular target: Neu5Ac(a2-6)GalNAc
Method in brief: as §1

[16] = molecular target: Neu5Ac(a2-6)GalNAc(b1-4)GlcNAc
Method in brief: as §1

Neu5Ac(a2-8)Neu5Ac = molecular target: Neu5Ac(a2-8)Neu5Ac
Method in brief: as §1

[17] = molecular target: Neu5Ac(a2-8)Neu5Ac(a2-3)Gal(b1-4)Glc
Method in brief: as §1

[18] = molecular target: Neu5Ac(a2-8)Neu5Ac(a2-3)[GalNAc(b1-4)]Gal(b1-4)Glc
Method in brief: as §1

[19] = molecular target: Neu5Ac(a2-8)Neu5Ac(a2-8)Neu5Ac
Method in brief: as §1

[20] = molecular target: Neu5Ac(a2-8)Neu5Ac(a2-8)Neu5Ac(a2-3)Gal(b1-4)Glc
Method in brief: as §1

[21] = molecular target: Neu5Ac(a2-8)Neu5Ac(a2-8)Neu5Ac(a2-3)[GalNAc(b1-4)]Gal(b1-4)Glc
Method in brief: as §1

[22] = molecular target: Neu5Ac(a2-8)Neu5Ac(a2-8)Neu5Ac(a2-8)Neu5Ac(a2-3)[GalNAc(b1-4)]Gal(b1-4)Glc
Method in brief: as §1

[23] = molecular target: Neu5Ac(b2-6)Gal(b1-4)GlcNAc
Method in brief: as §1

Neu5Ac(b2-6)GalNAc = molecular target: Neu5Ac(b2-6)GalNAc
Method in brief: as §1

[24] = molecular target: Neu5Ac9Ac(a2-6)Gal(b1-4)GlcNAc
Method in brief: as §1

[25] = molecular target: Neu5Gc(a2-3)Gal(b1-3)GlcNAc
Method in brief: as §1

[26] = molecular target: Neu5Gc(a2-3)Gal(b1-3)[Fuc(a1-4)]GlcNAc
Method in brief: as §1

Neu5Gc(a2-3)Gal(b1-4)Glc = molecular target: Neu5Gc(a2-3)Gal(b1-4)Glc
Method in brief: as §1

[27] = molecular target: Neu5Gc(a2-3)Gal(b1-4)GlcNAc
Method in brief: as §1

[28] = molecular target: Neu5Gc(a2-3)Gal(b1-4)[Fuc(a1-3)]GlcNAc
Method in brief: as §1

[29] = molecular target: Neu5Gc(a2-6)Gal(b1-4)GlcNAc
Method in brief: as §1

Neu5Gc(a2-6)GalNAc = molecular target: Neu5Gc(a2-6)GalNAc
Method in brief: as §1

[30] = molecular target: Neu5Gc(b2-6)Gal(b1-4)GlcNAc
Method in brief: as §1

B1: Surfactant Protein D (Human); Neck + Carbohydrate Recognition Domain (NCRD) (Homo sapiens) (protein)
chain: MLLFLLSALVLLTQPLGYLEAEMKTYSHRTMPSACTLVMCSSVESGLPGRDRDGREGPRGEKGDPGLPGAAGQAGMPGQAGPVGPKGDNGSVGEPGPKGDTGPSGPPGPPGVPGPAGREGALGKQGNIGPQGKPGPKGEAGPKGEVGAPGMQGSAGARGLAGPKGERGVPGERGVPGNTGAAGSAGAMGPQGSPGARGPPGLKGDKGIPGDKGAKGESGLPDVASLRQQVEALQGQVQHLQAAFSQYKKVELFPNGQSVGEKIFKTAQFVKPFTEAQLLCTQAGGQLASPRSAAENAALQQLVVAKNEAAFLSMTDSKTEGKFTYPTGESLVYSNWAPGEPNDAGGSEDCVEIFTNGKWNDRACGEKRLVVCEF
glycan array binding signal (z-score) [1]: -0.273
glycan array binding signal (z-score) (Neu5Ac(a2-3)GalNAc): -0.272
glycan array binding signal (z-score) [2]: -0.27
glycan array binding signal (z-score) [3]: -0.27
glycan array binding signal (z-score) [4]: -0.229
glycan array binding signal (z-score) [5]: -0.274
glycan array binding signal (z-score) (Neu5Ac(a2-6)Gal): -0.269
glycan array binding signal (z-score) (Neu5Ac(a2-6)Gal(b1-4)Glc): -0.269
glycan array binding signal (z-score) [6]: -0.258
glycan array binding signal (z-score) [7]: -0.252
glycan array binding signal (z-score) [8]: -0.258
glycan array binding signal (z-score) [9]: -0.262
glycan array binding signal (z-score) [10]: -0.249
glycan array binding signal (z-score) [11]: -0.264
glycan array binding signal (z-score) [12]: -0.241
glycan array binding signal (z-score) [13]: -0.266
glycan array binding signal (z-score) [14]: 0.549
glycan array binding signal (z-score) [15]: -0.273
glycan array binding signal (z-score) (Neu5Ac(a2-6)GalNAc): -0.184
glycan array binding signal (z-score) [16]: -0.256
glycan array binding signal (z-score) (Neu5Ac(a2-8)Neu5Ac): -0.245
glycan array binding signal (z-score) [17]: -0.271
glycan array binding signal (z-score) [18]: -0.229
glycan array binding signal (z-score) [19]: -0.273
glycan array binding signal (z-score) [20]: -0.273
glycan array binding signal (z-score) [21]: -0.211
glycan array binding signal (z-score) [22]: -0.267
glycan array binding signal (z-score) [23]: -0.274
glycan array binding signal (z-score) (Neu5Ac(b2-6)GalNAc): -0.268
glycan array binding signal (z-score) [24]: -0.266
glycan array binding signal (z-score) [25]: -0.27
glycan array binding signal (z-score) [26]: -0.267
glycan array binding signal (z-score) (Neu5Gc(a2-3)Gal(b1-4)Glc): -0.269
glycan array binding signal (z-score) [27]: -0.273
glycan array binding signal (z-score) [28]: -0.27
glycan array binding signal (z-score) [29]: -0.274
glycan array binding signal (z-score) (Neu5Gc(a2-6)GalNAc): -0.27
glycan array binding signal (z-score) [30]: -0.258
